Test results published in PubChem BioAssay AID743279 (National Center for Advancing Translational Sciences (NCATS), 2014).
Out of some 360,000 compounds screened, about 17,000 (4.7%) were called active. The inconclusive results got no clear call from the source; some entries with a clear call stand among them for comparison. No stated cut-off is given here; in the data, active means activity change below about -50%; inconclusive means mostly about -30% to -49%; inactive means weaker than that.

Assay: qHTS for Inhibitors of Inflammasome Signaling: IL-1-beta AlphaLISA Primary Screen
Conditions: THP-1 LPS/ATP IL-1B secretion, 16 h; at 57.5 µM, active compounds read low
Summary of the method: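 Secreted IL-1B measured by AlphaLISA bead assay after 16 h compound exposure of THP-1 cells; compounds (final up to 57.5 uM) added 1 h before LPS (250 ng/mL) and ATP (1.25 mM) stimulation; lower signal means less secretion.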
On the % scale 0 is the no-effect control and ±100 the full control effect.

Activity change, inconclusive:
Cc1ccc(S(=O)(=O)c2c(N)n(Cc3ccco3)c3nc4ccccc4nc23)cc1C -42.1%
COCCn1c(SCc2ccc(C(=O)OC)o2)nc2cc(Cl)ccc2c1=O -32.7%
O=C(Nc1nc2cc3c(cc2s1)OCCO3)c1cccs1 -33.2%
CCC(=O)c1ccc(OCC(O)CN2CCN(C(c3ccccc3)c3ccccc3)CC2)cc1 (configuration not stated) -43.5%
Cc1c(CN(C)Cc2cn(C)nc2-c2ccccc2F)[nH]c2ccccc12 -41.6%
COc1ccc(NCC(=O)N/N=C/c2cc([N+](=O)[O-])ccc2N2CCCC2)cc1 -47.8%
COc1ccccc1CNC(=O)c1ccccc1C(=O)NC(CC(C)C)C(=O)NCc1ccccc1OC (configuration not stated) -43.3%
COC(=O)[C@@H]1[C@@H](C#N)C2(c3ccccc3-c3ccccc32)N(c2ccc(Cl)cc2)N1C#N -44.3%
C#CCN(C(=O)c1cc(COc2cccc(C(F)(F)F)c2)on1)C1CCCCC1 -31%
Oc1cccc(Nc2ncnc3c2oc2ccccc23)c1 -38.9%
CCOCCCNC(=S)N1CCN(c2nc(-c3ccccc3)cs2)CC1 -38.5%
CCN1C=C(Cc2ccccc2C)C2=C(C1)C(c1ccccc1C)C(C#N)=C(N)O2 (configuration not stated) -41.5%
Clc1ccc(-n2cnc3c(Cl)ncnc32)cc1Cl -33.1%
CCS(=O)(=O)c1nc(S(=O)(=O)c2ccc(Cl)cc2)c(N2CCOCC2)s1 -36.9%
CC/C(=C\C(=O)c1ccncc1)Nc1ccc(O)cc1 -49.7%
CCS(=O)(=O)n1nc(-c2ccc(C)cc2)nc1N -37.8%
CCOC(=O)C1CCN(C(=O)COC(=O)c2ccc3[nH]c4c(c3c2)CCCC4)CC1 -34.3%
Cc1ccc(-c2nc(N)sc2C)cc1 -32.3%
CC(C)(C)c1csc(NC(=O)Cc2ccc(S(=O)(=O)N3CCOCC3)s2)n1 -32.9%
CCc1c(C)nc2ncnn2c1NCCc1ccccc1 -36.2%
Cc1ccccc1-c1n[nH]nc1C1=CC(=O)C[C@H](c2ccc(F)cc2)C1 -35.7%
Nc1sc(-c2ccccc2)cc1C(=O)N1CCNCC1 -33.3%
COc1ccc(OC)c(/C=C2\SC(N3CCCCC3)=NC2=O)c1 -38.9%
CCCCNCCOCCOc1ccccc1-c1ccccc1 -31%
Cc1cc2c3c(ccc(C)c3n1)N=CN2c1ccccc1 -44.6%
COc1ccc(C(=O)Nc2ccccc2C(=O)NCCN2CCOCC2)cc1OC -38.6%
N#CCSc1nnc(Cc2ccc3c(c2)OCO3)o1 -33.8%
CCOC(=O)c1c(NC(=O)CN2CCC(C)CC2)sc(C)c1C -38.6%
COc1cccc(-c2cccc(-c3nc(C(=O)Nc4ccc(-c5ccccc5)cc4)cc4c3[C@H](CCO)N(S(=O)C(C)(C)C)C4)c2)c1 (some centres not stated) -34.9%
Cc1cc(C)n(-c2ncc(-c3ccccc3)nn2)n1 -33%
CCOC(=O)c1c(Nc2nc(C)c(C(=O)NC)s2)sc(C)c1C -38.2%
Cc1ccc(NC(=O)CSC2=C(C#N)C(c3ccc4c(c3)OCO4)CC(=O)N2)cc1C (configuration not stated) -39.9%
Cc1ccc(CSCc2nnc(SCC(=O)N3CCN(c4ccccc4)CC3)n2C)cc1 -45.1%
COc1ccc(N2CCN(C3CCCN(C(=O)c4cccc(C)n4)C3)CC2)cc1 (configuration not stated) -39.5%
CCOc1cc(CNCc2cccs2)ccc1OCC(=O)NC(C)(C)C -42.1%
COc1ccc(OC)c(-n2c(SCC(=O)NCc3ccco3)nnc2-c2c[nH]c3ccccc23)c1 -31%
CCn1c(=O)c(=O)n(CC)c2cc(S(=O)(=O)Nc3cc(C)ccc3C)ccc21 -38%
Cc1cccc2c1N(CCOc1ccccc1)C(=O)C2=O -33.7%
O=C(c1ccccc1Oc1ccc([N+](=O)[O-])cc1)N1CCOCC1 -44.6%
O=C(C1CCCN(S(=O)(=O)c2cccc3nsnc23)C1)N1CCc2ccccc2C1 (configuration not stated) -33.1%
CC(=O)Nc1ccc(S(=O)(=O)Nc2nc3ccccc3s2)cc1 -32.1%
Cc1ccccc1/C=C\c1nc2ccccc2c(=O)n1Cc1ccccc1 -31.6%
O=C(c1ccc(N2CCCC2)c([N+](=O)[O-])c1)N1CCN(S(=O)(=O)c2ccc(Cl)cc2)CC1 -45.4%
CCOc1cc(C(c2c(C)[nH][nH]c2=O)c2c(C)[nH][nH]c2=O)cc(Cl)c1O -30%
Cc1cc(=O)n2nc(N3CCCC(C(=O)NCc4cccc(Cl)c4)C3)sc2n1 (configuration not stated) -34.1%
Cc1ccc(-c2cc(C(=O)N/N=C/c3ccc([N+](=O)[O-])o3)c3ccccc3n2)o1 -47%
COc1ccc(Cl)cc1NC(=O)CNC(c1ccccc1)c1ccccc1 -47.7%
Cc1ccc(-c2cc(C(F)F)nc(NCc3cccs3)n2)cc1 -33.7%
OCCN(CCO)c1ccc(C(c2ccc(Cl)cc2)c2ccc(N(CCO)CCO)cc2Cl)c(Cl)c1 -48%
CCn1c(N2CCN(C(=O)Nc3ccc(F)cc3)CC2)nc2ccccc21 -45%
c1ccc(-c2ccc(-c3cn4c(n3)CCC4)cc2)cc1 -35.7%
CCCCC(=O)Nc1ccccc1N1CCN(c2ccc(F)cc2)CC1 -47.6%
COc1c2c(c(OC)c3ccccc13)[C@]1(OC2)O[C@H](CCO)C[C@H](O)[C@H]1O -32.9%

Activity change, active:
CCc1nc(Nc2ccc(OC)c(OC)c2)c2nnn(Cc3ccccc3Cl)c2n1 -64.8%
CCN(CC)C(=O)CSc1ncnc2c(-c3cccs3)nsc12 -60.1%
O=C(N/N=C/c1ccc([N+](=O)[O-])s1)c1ccncc1 -98.2%
CC1CCCCN1S(=O)(=O)c1cnc(Cl)c(Br)c1 (configuration not stated) -93.6%
Cc1ccc(C(=O)N/C(=C\c2ccc(-c3ccc(Cl)cc3)o2)C(=O)NCCCN(C)C)cc1 -67.2%
CC(=O)Nc1cccc(Nc2nc(-c3cccs3)nc3ccccc23)c1 -65.6%
O=S(=O)(c1ccc(F)cc1)c1snnc1-c1ccccc1 -99.9%
CCc1nc(Nc2ccc(O)cc2)c2oc3ccccc3c2n1 -88.9%
Nc1c(S(=O)(=O)c2cccs2)c2nc3ccccc3nc2n1/N=C/c1cccc(O)c1 -79.8%
COc1ccc(CC(N)c2csc(NC(=O)NC(c3ccccc3)c3ccccc3)n2)cc1 (configuration not stated) -61.5%
CN(C)CCCN(C(=O)c1ccco1)c1nc2ccc(Br)cc2s1 -70.1%
COc1cccc(NC(=O)c2nc(S(C)(=O)=O)ncc2Cl)c1 -101%
O=C(/C=C\c1ccccc1OC(=O)c1ccccc1F)c1cc2ccccc2o1 -104%
COc1ccc(C2c3ccc4ccccc4c3Oc3ncn(CCCO)c(=N)c32)cc1OC (configuration not stated) -55.5%
COc1ccc(C2c3ccc4ccccc4c3Oc3ncn(CCN4CCOCC4)c(=N)c32)cc1 (configuration not stated) -79.4%
Fc1ccccc1CNC(=S)Nc1cccc(C(F)(F)F)c1 -98.1%
COc1cc(CNCCc2ccccc2)cc(Br)c1OCC(=O)Nc1ccccc1C -67.3%

Activity change, inactive:
COc1ccc(CNC(=O)c2ccc(CS(=O)(=O)c3ccc(Br)cc3)o2)cc1 -21.8%
COCCn1c(SCC(=O)N2CCC(C)CC2)nc2c(c1=O)SCC2 0%
Cc1ccc(C)c(CN2C(=O)c3ccccc3S(=O)c3ccc(C(=O)NCCCN4CCCC4)cc32)c1 (configuration not stated) -14.1%
CC1(C)NC(=O)N(CC(=O)OCC(=O)c2ccc(Cl)s2)C1=O 9.51%
COc1cc(C(C)=O)ccc1Oc1ccc(S(=O)(=O)N2CCOCC2)cn1 11.4%
Cc1cc(C)cc(NC(=O)CSc2nnc(CNC(=O)c3ccco3)o2)c1 8.97%
COc1ccccc1NC(=O)C(=O)c1cn(CC(=O)N2CCOCC2)c2ccccc12 -12.5%
Cc1cc(C(C)(C)C)cc(C)c1C(=O)O -7.13%
O=C(NCCCN1CCOCC1)[C@@H]1CSC2c3ccccc3C(=O)N21 (some centres not stated) 11.5%
COc1ccc(NC(=O)CN(C)C(=O)c2cccc(S(=O)(=O)N3CCCc4ccccc43)c2)cc1 8.59%
COc1ccc(C(=O)c2c3ccc([N+](=O)[O-])cc3[n+]([O-])n2CCCC(N)=O)cc1 4.87%
CN1C(=O)C(O)(C2CCCCCC2=O)c2ccccc21 (configuration not stated) 9.57%
O=C(N/N=C/c1cc(Br)cc(Br)c1O)c1ccncc1 164%
COc1ccc(C=O)cc1CSc1ncccc1C(=O)O 8.67%
N/C(=N\OC(=O)c1cccnc1)c1ccccc1Cl -8.79%
Cc1cccc(NC(=O)CCCC(=O)OC(C)C(=O)c2ccccc2)c1 (configuration not stated) -3.65%
Cc1cc(NC(=O)CSc2nnc(-c3ccncc3)n2N)ccc1Br 9.53%
